Sequences with one replicate were seen in a single cluster, so their values are uncertain.
System: ATP
Test: switch fluorescence ratio, 500 uM ATP over buffer (Cy3 cluster intensity, sum of 5 cycles each) (fold (ratio)); higher = stronger signal-on switching upon ATP binding; sequences stand for … in TCGTCGGCAGCGTCAGATGTGTATAAGAGACAGTTTTTTTTTTTTTTTTTTTTTTTTT…TC
Details: aptamer strand: ATP DNA aptamer (quencher-CACCTGGGGGAGTATTGCGGAGGAAGG + anchor), 100 nM annealed; ATP concentration: 500 uM; one replicate
Procedure, shortened: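 Clusters with intensities outside 100-1000 RFU were excluded. The remaining Cy3-labelled switching-strand clusters on a modified Illumina MiSeq flow-cell had been annealed to 100 nM quencher-labelled ATP aptamer and imaged in selection buffer, then after 15 min with 500 uM ATP at 22 °C, for five cycles separated by NaOH stripping and re-annealing. The fluorescence ratio, averaged per switch-domain sequence, is each cluster's summed target-cycle Cy3 intensity over its summed buffer-cycle Cy3 intensity.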
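Also: ATP exposure 15 min at 22 °C before imaging.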

| Sequence | switch fluorescence ratio |
| --- | --- |
| TTCCCGGTTT | 0.988 |
| TGAGCAGACG | 1.03 |
| AGTTAGGTTG | 1.02 |
| CCCCTCTAGC | 1.23 |
| AGCGGGATCT | 1.02 |
| TGCGTGACGG | 1.02 |
| GGTCGACTGA | 0.989 |
| TTCATACTAA | 0.992 |
| GGAGCGTGGG | 1.01 |
| TCCTTATGAA | 0.994 |
| ACACTTATAG | 1.05 |
| CCGAGTACGG | 1.1 |
| GATTGGCGGA | 0.918 |
| ATGGATAATA | 1.03 |
| TCAGTCGTGT | 0.98 |
| CTCACGGAA | 1.81 |
| TTTGCAAGCT | 1.04 |
| GCCTAAGACT | 1.03 |
| CTCTCAAACT | 1.13 |
| AAGGGGAAAT | 1.05 |
| TTCCATCCTG | 0.971 |
| ATGCGAAAAG | 0.995 |
| ACGTGTGTAT | 1.03 |
| GGGCCAAAAG | 0.983 |
| CAAGCCAACG | 1.01 |

| Sequence | switch fluorescence ratio |
| --- | --- |
| CTCCTAGAAT | 1.04 |
| GAATGACGGG | 1.01 |
| CGTACTTAAT | 1.08 |
| TTTCTGCCGT | 1.05 |
| CCCAAATCGG | 0.994 |
| CATGTTAAGC | 1.11 |
| GCGGGGTAGC | 1.02 |
| CACATCAGGC | 1.03 |
| TTGTGCATGT | 0.98 |
| AGCAAATATT | 0.99 |
| GTCTGGGGAG | 1 |
| TGAGTTCGGT | 0.975 |
| AAAGACTGGT | 1.04 |
| CAGGAGCAGC | 0.928 |
| CCGAAAGTGA | 2.37 |
| GCGTGTAGGA | 1.03 |
| GCATGCAAAA | 1.03 |
| GCCTATATGC | 1.02 |
| TTGAAACTAT | 0.974 |
| GTTGTTGACG | 1.04 |
| TGGCATTGCG | 0.969 |
| TTGATTTGAG | 1.01 |
| CCTGGGCTAA | 1.04 |
| ATAATTATCT | 1.04 |
| AGCACCATGA | 1.02 |

| Sequence | switch fluorescence ratio |
| --- | --- |
| GTCGGGTGTA | 1.01 |
| ATTGTTGTCA | 0.984 |
| CATTGCGAGT | 0.992 |
| TGACTTTATT | 0.998 |
| TTGCGCGGGT | 1.02 |
| ATGCTTGATC | 1.07 |
| CTGGGCATTT | 1.01 |
| GTCGTGTAGA | 1.03 |
| CTTTTATGTG | 0.935 |
| ATAAACGCTA | 1.18 |
| TTCCAAAGCA | 1.36 |
| GCGGTCCAAA | 1.01 |
| GCGTAAATTT | 0.967 |
| TCGATAGTCT | 0.983 |
| CCCCTCCTCT | 1.3 |
| ATATTTAACG | 1.01 |
| GGGCGCGGAC | 1.23 |
| CGAGGCATTT | 2.17 |
| CATACGCTTG | 1.07 |
| TTTGATTCTA | 1 |
| AAAAAAGAGC | 0.969 |
| CAACTTTTTA | 1.02 |
| CTGAAAC | 1.03 |
| AGGAGTGCTC | 0.989 |
| ACAAGAACGC | 1.09 |

| Sequence | switch fluorescence ratio |
| --- | --- |
| CATTTAATGA | 1 |
| AATTTAATGA | 1.01 |
| CCACTAGAAG | 1 |
| TAATATCCAT | 1.05 |
| AGCGCTTATT | 1.01 |
| TAAAACAGGT | 1.05 |
| AGAAGTCCGG | 1.01 |
| TTACATGCTG | 1.03 |
| CTGTATGATA | 0.985 |
| TCGGAATTCA | 1.04 |
| TTTAACCATG | 0.94 |
| CCATGATCAT | 0.988 |
| TCCATTATAT | 1.04 |
| TGAGCTACGG | 1.03 |
| AGTTAGGCGG | 1.01 |
| ACAGGTCCAT | 0.957 |
| TATCAAGATT | 1.03 |
| CAAAGAACGA | 0.974 |
| CAAGCTGGAG | 0.975 |
| GCCTAAGCTG | 1.01 |
| CTAATTACTC | 1.04 |
| CCTGATTTTG | 0.997 |
| GGCCACCGGT | 0.976 |
| TAGTCGTCAC | 0.986 |
| AGTAGGAATA | 1.03 |

| Sequence | switch fluorescence ratio |
| --- | --- |
| CAATAAGTGT | 0.998 |
| GGGTAGTCAA | 0.991 |
| AACGCCATCC | 1.44 |
| CTTGTAAAAA | 1.08 |
| ATGTAGCGGG | 0.974 |
| GAGATGCGCT | 1.02 |
| GATTCAAGCG | 1.01 |
| TAGCTAAGTG | 1.02 |
| AGTGGTGAAC | 1.03 |
| ATTGTCAGGT | 1 |
| GAATCCTATT | 0.974 |
| TGAAGAGCC | 1.01 |
| CAAGCTGAAC | 1.29 |
| TGTAAGAAGT | 1.01 |
| TCTGGGCCCG | 1.02 |
| TATGCAGCCT | 1.01 |
| CGCATCGAAT | 1.04 |
| GAGTCTCGGC | 0.99 |
| CGAGGGTAG | 1.03 |
| TCGTATCTTG | 0.974 |
| AATCGTAGCC | 1.01 |
| CCGAGGATAG | 1.49 |
| CGGTTTTAAA | 1.04 |
| ACCAGCTTTA | 1.01 |
| ACGAGGTGCC | 0.97 |

| Sequence | switch fluorescence ratio |
| --- | --- |
| ATGGAAGCGA | 1.01 |
| AAAGCAGTGC | 1.3 |
| CGGTCCGGGG | 0.977 |
| ACTGATCTAT | 0.992 |
| ATTGCGGTCC | 1.04 |
| CTAGAGACGA | 0.995 |
| AGGGGTGGGC | 0.969 |
| TTGGTGGCTG | 0.968 |
| GCAAGGTGAT | 1.16 |
| TAAAATAATA | 1 |
| TCACTCCGGA | 1.67 |
| GCCAGCGCTT | 0.983 |
| TATAGAAGTG | 0.993 |
| TCTAATCTAG | 0.987 |
| AGGACATAAT | 1.01 |
| AATAGTTTTC | 0.957 |
| TATAGCTCG | 1.02 |
| AAAGTGTAAT | 0.988 |
| GAAGGCCGGA | 1.05 |
| GTGAAAACCC | 1.04 |
| GGATTTGACT | 0.989 |
| CCTATCCTTT | 0.961 |
| CTTTTGAGAT | 1.01 |
| TACGTCCACT | 1.45 |
| GCATGCGCCT | 1.06 |

| Sequence | switch fluorescence ratio |
| --- | --- |
| TCGCTAGAG | 1.11 |
| TTCAACTGTA | 1.11 |
| AAATCGTCG | 0.957 |
| GCTATCCGAC | 1.24 |
| ATCCCATACC | 1.15 |
| CATAAAAGAG | 1.02 |
| TTCGGTGGCC | 1.01 |
| AAAAACGACT | 1.05 |
| GAGGAAGCGT | 1.03 |
| AGATGAGCGG | 0.965 |
| TGACTAAGTC | 1.02 |
| CTAACGGGGG | 0.993 |
| TAATCTATTT | 0.98 |
| ACGCATGGAA | 2.95 |
| AACAACGGAC | 1.37 |
| CATATTGAGG | 0.924 |
| CTCAGCGCGT | 1.05 |
| AAGGCGGTGG | 0.971 |
| CACGCCTCCT | 1.12 |
| ATCAGACTCC | 1.08 |
| AAACGCAAGG | 1.28 |
| TGCTATTAC | 2.09 |
| TACTTGCTCA | 1.02 |
| GGTGGGGTAC | 0.994 |
| ACAAGAGTCA | 0.999 |

| Sequence | switch fluorescence ratio |
| --- | --- |
| CACTCCGTAT | 2.05 |
| GAATTGCCGG | 0.94 |
| GCCCTGGGGG | 1.05 |
| TCTTTCTTAC | 1.1 |
| CATCGTTACC | 1.09 |
| AACCGATTAA | 1.01 |
| AACCGGTGGC | 1.07 |
| ACCAAGTCCG | 1.68 |
| GAGTAATTGG | 0.997 |
| ATGGATCCCA | 0.989 |
| TAGCTTCAT | 0.999 |
| TCAATTGAAT | 0.998 |
| AGAGCGTGCC | 0.991 |
| GAACGCTGAG | 1.14 |
| GAGTAGTTTG | 1 |
| TATACGAAGG | 1.01 |
| CCGTCCCCGC | 3.89 |
| ACCACTTGT | 1.06 |
| TAGGTAAGTA | 0.99 |
| AGCTGGGTCG | 1.06 |
| TCGGGCATAC | 6.13 |
| AGTGGGATAC | 1.1 |
| AGTTATGGGC | 0.992 |
| CCCGTTACGA | 1.41 |
| CAAGAACGGA | 1.01 |
